In PubChem BioAssay AID1030 (National Center for Advancing Translational Sciences (NCATS), 2008):
“And” between values parts separate entries of the source, which are not always exact repeats. Identical values can stand only once. About 16,000 (7.3%) of roughly 220,000 compounds were called active. Inconclusive means that the source gave no clear call. Such entries were picked first, then a sample of the others. Calls follow the shape of the dose curve; as a rule, active = well fitted inhibition curve with a large enough effect (not every such curve was filed as active); inconclusive = small, poorly fitted or top-dose-only effect, or another doubt; inactive = no such curve, though single readings can be large or run the other way. Potencies of inconclusive entries are doubtful fits and often do not repeat.

Target: Aldehyde dehydrogenase 1A1 (Homo sapiens) (UniProt P00352)
Sequence of UniProt P00352 (P00352 whole entry, looked up): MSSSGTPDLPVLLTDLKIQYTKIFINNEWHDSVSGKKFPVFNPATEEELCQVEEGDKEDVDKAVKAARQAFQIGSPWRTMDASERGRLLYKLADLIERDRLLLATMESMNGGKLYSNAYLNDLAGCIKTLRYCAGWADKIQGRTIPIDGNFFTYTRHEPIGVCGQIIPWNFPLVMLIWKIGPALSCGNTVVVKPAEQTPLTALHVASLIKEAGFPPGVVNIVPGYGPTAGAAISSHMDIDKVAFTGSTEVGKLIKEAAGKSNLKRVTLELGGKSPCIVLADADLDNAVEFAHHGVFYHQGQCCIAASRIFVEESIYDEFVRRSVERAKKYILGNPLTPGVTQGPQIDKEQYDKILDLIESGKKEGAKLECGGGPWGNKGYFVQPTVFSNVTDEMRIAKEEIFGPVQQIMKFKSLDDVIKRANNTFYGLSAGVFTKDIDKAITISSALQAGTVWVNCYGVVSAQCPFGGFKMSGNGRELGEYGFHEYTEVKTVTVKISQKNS
Experiment: qHTS Assay for Inhibitors of Aldehyde Dehydrogenase 1 (ALDH1A1);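 as to activity, negative = inhibition: plate controls were no enzyme wells and a reference inhibitor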
Conditions: Purified ALDH1A1, NADH fluorescence, propionaldehyde substrate; series mostly up to 75.3 µM; activity, negative = inhibition: at the top concentration
Potency is read from the fitted curve at half-maximal effect; tags tell the direction and shape of the fitted curve.

SMILES | Potency | activity, negative = inhibition
O=C1NC(c2ccccc2)=C(c2nc3ccccc3s2)C(c2ccccc2)N1 (centres undefined) | inconclusive: 39.8 µM [inhibitor, single point] | –
CC1=CC(C)(C)NC(=S)N1c1ccc(C)cc1C | – | inactive: 7.8%
O=C(COC(=O)c1ccc2c(=O)n3c(nc2c1)CCC3)NC1CCS(=O)(=O)C1 (centres undefined) | – | inactive: -2.75%
O=C1N=C(N2CCOCC2)SC1=C1CCCCC1 | active: 2 µM | –
CC(C)C(Sc1nc(-c2ccccc2)cc(-c2ccccc2)c1C#N)C(=O)O (centres undefined) | inconclusive: 11.2 µM [inhibitor, partial curve] | –
Cc1ccc(C(C(=O)NC2CCCCC2)N(CC2CCCO2)C(=O)CNC(=O)c2ccco2)cc1 (centres undefined) | inconclusive: 3.55 µM [inhibitor, partial curve] | –
NC(=S)NNc1ccnc2cc(Cl)ccc12 | active: 1.41 µM | –
COc1ccc(N(C(C)C(=O)N/N=C/c2ccc(OC(C)C)cc2)S(C)(=O)=O)cc1 (centres undefined) | active: 14.1 µM | –
COC(=O)C(CCSC)NC(=O)c1cc2c(n(-c3ccc(C)cc3)c1=O)CCCC2=O (centres undefined) | – | inactive: 6.59%
N#CCc1c(C#N)c(N)nc(N2CCCC(O)C2)c1C#N (centres undefined) | active: 3.55 µM | –
N#Cc1ccc(C(=O)Nc2nnc(-c3ccccn3)o2)cc1 | – | inactive: -10.8%
CCOc1ccccc1NC(=O)CCC(=O)Nc1ccc2nc(N3CCN(C)CC3)cc(C)c2c1 | inconclusive: 25.1 µM [inhibitor, partial curve] | –
CCCCCOC(=O)CSc1nc2c(c(=O)[nH]c(=O)n2C)n1Cc1ccc(Cl)cc1 | inconclusive: 20 µM [inhibitor, partial curve] | –
COCCNC(=O)c1ccccc1NC(=O)c1ccccc1N(C)S(C)(=O)=O | – | inactive: 18.3%
CCCOc1ccc(C2c3c(oc4ccccc4c3=O)C(=O)N2CCN(CC)CC)cc1OC (centres undefined) | – | inactive: -5.65%
O=C(CNC(=O)c1ccccc1)OCc1cc(=O)n2cc(Br)ccc2n1 | inconclusive: 39.8 µM [inhibitor, single point] | –
Cc1cc(C=O)c2c(c1)C=CC1(Oc3ccccc3C(=O)N1C)O2 (centres undefined) | – | inactive: -7.74%
O=C(COc1ccc(Br)cc1Br)NC(=S)Nc1cccc(CO)c1 | inconclusive: 28.2 µM [inhibitor, single point] | –
Cc1oc2c(C)c(O)ccc2c(=O)c1-c1nncn1-c1ccccc1 | inconclusive: 39.8 µM [inhibitor, single point] | –
Cc1cc2cc(CNC(=O)c3ccc(S(=O)(=O)N4CCCCC4)cc3)ccc2[nH]1 | inconclusive: 28.2 µM [inhibitor, single point] | –
COc1ccc(C2=CC(=O)OC3(CCCCC3)O2)cc1 | inconclusive: 12.6 µM [inhibitor, partial curve] | –
COc1ccccc1-n1c(N)c(C(N)=O)sc1=S | active: 28.2 µM | –
CCN(C(=O)CN1CCN(S(=O)(=O)c2cc(Cl)ccc2Cl)CC1)c1c(N)n(Cc2ccccc2)c(=O)[nH]c1=O | – | inactive: 5.01%
CN(CCC#N)C(=O)COC(=O)c1cccnc1Nc1ccccc1F | – | inactive: 5.83%
COc1ccc(C(=O)N2CCC3(CCCN(c4ccc(-c5ccccc5)cc4)C3)CC2)cc1 | inconclusive: 37.7 µM [inhibitor, single point] | –

SMILES | Potency | activity, negative = inhibition
C=CCN1c2ccccc2[C@]23C[C@@H](C(=O)OC)N(C(=O)CC(C)C)C2=NC(C(=O)OC)=C(C(=O)OC)[C@H]13 | – | inactive: 1.87% [at 13.5 µM]
COc1ccc(NC(=O)c2ccc3c(=O)n(-c4ccc(OC)cc4OC)c(=S)[nH]c3c2)c(OC)c1 | inconclusive: 14.1 µM [inhibitor, partial curve] | –
Cc1ccc(C(=O)N2CC(C)OC(C)C2)c(Cl)c1 (centres undefined) | inconclusive: 3.16 µM [inhibitor, single point] | –
CCn1c(=O)c(=O)n(CC)c2cc(S(=O)(=O)N3CCc4ccccc43)ccc21 | inconclusive: 17.8 µM [inhibitor, partial curve] | –
O=S(=O)(NCC(O)COCc1ccco1)c1cccs1 (centres undefined) | active: 7.94 µM | –
Cc1c(C)c2c(c(C)c1O)CCC(C)(CCCC(C)CCCC(C)CCCC(C)C)O2 (centres undefined) | – | inactive: -0.151%
CC(C)Cc1cc(-c2ccco2)c(C#N)c(N)n1 | inconclusive: 7.94 µM [inhibitor, full curve] | –
COc1ccc(N=C2C(=O)N3c4c(cccc42)C(C)=CC3(C)C)cc1 | active: 2 µM | –
Nc1nc(SCC(=O)c2cccc([N+](=O)[O-])c2)n[nH]1 | inconclusive: 39.8 µM [inhibitor, single point] | –
N#Cc1cccc(Cn2nnc(-c3ccccc3)n2)c1 | inconclusive: 22.4 µM [inhibitor, partial curve] | –
CC1CCCC(NC(=S)NC(=O)c2cncc(Br)c2)C1C (centres undefined) | inconclusive: 39.8 µM [inhibitor, single point] | –
CCOC(=O)C(C(=O)NCCCN1CCOCC1)C1CCCCC1 (centres undefined) | – | inactive: 1.14%
Cc1ccc(N(CC(=O)NC2CCCCC2)C(=O)Cn2nnc(-c3ccc(C)o3)n2)cc1 | – | inactive: -3.17%
Cc1cc(C)c2c(NC(=O)CCl)nn(C)c2n1 | inconclusive: 12.6 µM [inhibitor, partial curve] | –
COc1ccc(CC2(C)OC(c3ccccc3)=NN2C(C)=O)cc1 (centres undefined) | inconclusive: 39.8 µM [inhibitor, single point] | –
Cc1ccc(OCc2nnc(NC(=O)OCC(C)C)s2)c(C)c1 | – | inactive: 0.651%
Cc1ccc(C2=N/C(=C/N3CCOCC3)C(=O)O2)cc1 | – | inactive: -5.18%
CCN1C(=O)CC(N2CCN(c3ccc(Cl)cc3)CC2)C1=O (centres undefined) | – | inactive: -3.41%
CCOCCCN1C(=O)CN(C2CCCCC2)C(=O)C1c1ccc(OC)c(OC)c1 (centres undefined) | – | inactive: 16.4%
Cc1ccccc1-c1nc(CN2CCC(C(=O)NCCCN3CC(C)CC(C)C3)CC2)c(C)o1 (centres undefined) | – | inactive: 6.53%
O=C(Nc1nc(-c2cccs2)c(-c2cccs2)s1)C1CCCC1 | inconclusive: 39.8 µM [inhibitor, single point] | –
Cc1ccc(C)c(C(=O)CSc2nnnn2C(C)C)c1 | inconclusive: 39.8 µM [inhibitor, partial curve] | –
O=C(Cc1ccccc1)NN1C(=O)/C(=C/c2ccccc2C(=O)O)SC1=S | inconclusive: 31.6 µM [inhibitor, single point] | –
CCc1sc(NC(=O)CCC(=O)O)nc1-c1cc2ccccc2oc1=O | – | inactive: -11.7%
CC1(C)Cc2c(c(N3CCCC3)nc3sc4c(N5CCNCC5)ncnc4c23)CO1 | inconclusive: 39.8 µM [inhibitor, single point] | –

SMILES | Potency | activity, negative = inhibition
CCN(CC)S(=O)(=O)c1ccc(C)c(NC(=S)N2CCN(Cc3ccc4c(c3)OCO4)CC2)c1 | inconclusive: 28.2 µM [inhibitor, partial curve] | –
O=C(NCC1CCCO1)C(c1cccs1)N(Cc1ccccc1)C(=O)c1ccc(-c2ccccc2)[nH]1 (centres undefined) | inconclusive: 28.2 µM [inhibitor, single point] | –
Cn1c(=O)cc(SCC(=O)NCC2CCCO2)c2ccccc21 (centres undefined) | active: 12.6 µM | –
Brc1c(CSc2nncn2-c2ccccc2)nc2ncccn12 | inconclusive: 31.6 µM [inhibitor, partial curve] | –
CC(C)CCn1nnnc1C(c1ccccc1)N1CCN(C)CC1 (centres undefined) | – | inactive: 3.53%
N#Cc1nc(-c2ccccc2)oc1NCC1CCCO1 (centres undefined) | inconclusive: 22.4 µM [inhibitor, partial curve] | –
CC(CCc1ccccc1)NC(=O)/C=C/c1ccc(F)cc1 (centres undefined) | inconclusive: 3.55 µM [inhibitor, full curve] | –
COc1cc(OC)c(/C=N/NC(=O)c2ccncc2)cc1Br | inconclusive: 5.01 µM [inhibitor, single point] | –
Cc1cccc(C)c1NC(=O)CN1CCN(CCCC(c2ccc(F)cc2)c2ccc(F)cc2)CC1 | – | inactive: 3.55% [at 20.9 µM]
Cc1nc(N=Nc2cc(S(=O)(=O)O)c3cc([N+](=O)[O-])cc(S(=O)(=O)O)c3c2)c(COP(=O)(O)O)c(C=O)c1O | inactive and inconclusive: 22.4 µM [inhibitor, partial curve] and inconclusive: 31.6 µM [inhibitor, single point] | –
CCOC(=O)N1CCC(NC(=O)C2CCCN(S(C)(=O)=O)C2)CC1 (centres undefined) | – | inactive: 3.22%
O=C(N/N=C/c1c[nH]c2ccccc12)c1sc2ccccc2c1Cl | inconclusive: 39.8 µM [inhibitor, single point] | –
Cc1ncn(-c2ccccc2O)c1C | inconclusive: 7.08 µM [inhibitor, single point] | –
Cc1ccc(C(O)C2=CCCC2=O)cc1 (centres undefined) | – | inactive: -6.11%
O=C(Nc1cccc2ccccc12)N1CCN(c2ccccc2)CC1 | inconclusive: 31.6 µM [inhibitor, partial curve] | –
FC(F)(F)c1cnc(C(c2ccccn2)c2ncn[nH]2)c(Cl)c1 (centres undefined) | – | inactive: 14%
NC(=S)N/N=C/c1coc2c(ccc3ccccc32)c1=O | active: 2.24 µM | –
COc1ccc(NC(=O)CN2CCN(CC(=O)Nc3ccccc3F)CC2)c(OC)c1 | active: 17.8 µM | –
Cc1ccc(OCC(=O)Nc2ccc(N3CCOCC3)cc2)c([N+](=O)[O-])n1 | – | inactive: 2.85%
COc1ccc(S(=O)(=O)N=C2C=C(C)C(=O)C(C)=C2)cc1 | inconclusive: 20 µM [inhibitor, partial curve] | –
Cc1cc(C(=O)Nc2c[nH]c(=O)[nH]c2=O)ccc1[N+](=O)[O-] | inconclusive: 17.8 µM [inhibitor, partial curve] | –
COc1ccc(CCN=C(N)NS(=O)(=O)c2cccs2)cc1 | inconclusive: 39.8 µM [inhibitor, single point] | –
Cn1ncc(C#N)c1/N=C/N1CCCC1 | – | inactive: 3.92%
COc1cccc([C@@H]2Oc3ccc(OC)cc3/C(=N/O[C@@H](C)CN3CCCc4nc(C)c(C)cc43)[C@@H]2O)c1 | inconclusive: 3.55 µM [inhibitor, single point] | –
